Binding signal data for 14 molecules are collected here from article PMC12136788.

The chains are these.
B1: chr1:163112212:163112213:-_ENSG00000143248_ENST00000313961|hu_hu|hu_hu_hu_mus_False|38_68 (ssRNA)
RNA: GGGAGUUCUACAGUCCGACGAUCUUUUAUUAUCAGUAAGAGUGAGUUACAUACUAGGCAAAGUAUUGAAUACAAAAAUCAGGAAACAAACACUAUUUUUCUUGAAUUUAAAACUUUAUGAGCGAAGUGCUGGCACAGGACUUACAACAGAGGAUUGAGCAUCA
B2: chr19:58207738:58207739:+_ENSMUSG00000054843_ENSMUST00000077282|mus_hu|motif|central (ssRNA)
RNA: GGGAGUUCUACAGUCCGACGAUCCCCAGAAAGGUAUAGCAUGACUUUAACUAAACAUCACAUUGUGUCUCAUAAUUCUCGGCAAUUUGAAUUUUCAAGUUUUAAGAACCCAGUGGGAUUUGAGGUGAAUAAAACUUGAUAAUUCAACAGAGGAUUGAGCAUCA
B3: chr14:66974463:66974464:+_ENSMUSG00000022044_ENSMUST00000074523|mus_hu|mus_mus_mus_hu_False|1_58 (ssRNA)
RNA: GGGAGUUCUACAGUCCGACGAUCUUGUAGGACGACUUAUUCAGGGGAUCGGCCAGGAAGCAGGAGCAGAACAAGGACACUAGUGGGAGCUCCUUCAUCUUCUCUUUGUAGGCAGCAAGGGUCAUGUUUCUGGGAUCCUGGUGGCAACAGAGGAUUGAGCAUCA
B4: chr2:129025431:129025432:+_ENSMUSG00000027397_ENSMUST00000028880|mus_hu|motif|central (ssRNA)
RNA: GGGAGUUCUACAGUCCGACGAUCGUACUGGUAAUCAGCGUUGCCAUUCUCUGGAGUAGUGGUUGUUUAGUAAGAGAACGGCUGAGCGCCUUUCAAGAUGUGUAAACAGAAUAUGAGGUAUCAAAAAUGCUAUAAUAAAUAAUACAACAGAGGAUUGAGCAUCA
B5: 220363460_220363810_1716_CDS_ENSG00000118873_ENST00000358951|human|control|control (ssRNA)
RNA: GGGAGUUCUACAGUCCGACGAUCAUCCUUGGCUCGUUCACUCUUCUUAUCACUCAGUGCUAAAUGGAAGGGAACGUUCACUGUUUUCACACUUCCAGACACUGGAUCAACCAGACAGAUCUGAUAAGUCUGUGGCUGCCAACUCAACAGAGGAUUGAGCAUCA
B6: chr5:37680062:37680063:+_ENSMUSG00000029121_ENSMUST00000031004|mus_hu|mus_mus_mus_hu_False|18_88 (ssRNA)
RNA: GGGAGUUCUACAGUCCGACGAUCUUUGGGUGUAGCUGGUACCUCGUACACAGGCCCGUCAUACAUGCCCCUGGAAACCCCUUGCAAUCCAAAAACCUUAUUCCUGAUUUUGACGCGCUGGUAGAGAUGCUCCGGGAACGCCUUCAACAGAGGAUUGAGCAUCA
B7: chr14:102368134:102368135:+_ENSG00000078304_ENST00000445439|hu_hu|hu_hu_hu_mus_True|48_88 (ssRNA)
RNA: GGGAGUUCUACAGUCCGACGAUCAAGAGGCUCCAUGAUCUUCACAAAUUCUGAUGGUUCAAUUACAUCUAAAAUUUCUUCUAAUUCGUUUAAGAACAUUACUUCUUUUGGACUGUGAGUCUUUGGCCAGUAUUUGAGAAGUGCCAACAGAGGAUUGAGCAUCA
B8: 117559201_117559852_142_3pUTR_ENSMUSG00000033379_ENSMUST00000036380|mouse|control|control (ssRNA)
RNA: GGGAGUUCUACAGUCCGACGAUCCAUCAAAGCGAAAGCCCAGGUCAAAGAUGGUGUAGCAGAUUCCCACAACGACCAUGCAGGCCCAGAAGGCCACAAAGAUCCCGAGGUAGAGCAACUCCAGCCCCGUCAUGGCAGCGGCGACAACAGAGGAUUGAGCAUCA
B9: chr11:23185130:23185131:+_ENSMUSG00000020290_ENSMUST00000020538|mus_hu|FALSE|FALSE (ssRNA)
RNA: GGGAGUUCUACAGUCCGACGAUCAAAUGGCAUCACUUCUCCAACCUGAACCUGAACGAAAUGCCUGCGGCAUUUUUGGGCUAUUUUAAUGAAAGUAUCACAAGCCAUAUCCUGGACUCCAUCAUGGGUCUCAUGCAUGAAUUCCAACAGAGGAUUGAGCAUCA
B10: 70806291_70806411_3695_CDS_ENSG00000145734_ENST00000358731|human|control|control (ssRNA)
RNA: GGGAGUUCUACAGUCCGACGAUCCUUGACCUCCUCUGGGCCAUUUUCCUCUGGGGAUAUUUCUCUUCUUCCAGUUUCUUCCAGAUCUUUGUCUAUUUCCUCAGUGGCAUCAAUCACCUCUGGUGUCUUCUCCCUUGGGGAAAUCAACAGAGGAUUGAGCAUCA
B11: 37586386_37591453_2401_CDS_ENSG00000102710_ENST00000475892|human|control|control (ssRNA)
RNA: GGGAGUUCUACAGUCCGACGAUCCUGAGCAGAUAAGGCCUGUUCUUGACUGGUUGAACCUUGCUCAGAACCCUGCUCCCCUGGCUGUUGAGGACUACAAGUUGUGGGCUGCUGAGGUUGUUGUGGUGUAAACUGGGAGAGCUGCAACAGAGGAUUGAGCAUCA
B12: chr1:114133195:114133196:+_ENSG00000081026_ENST00000369615|hu_hu|motif|central (ssRNA)
RNA: GGGAGUUCUACAGUCCGACGAUCCAUUUCCCAGUUUUUGGGCAGUGGUUCCAGAGUCUCAUCUCUCAUCAUAUAAUUUCGGAAGUCCAUGGAGCUAUUUGUUUGGUUGUAACUUGGAACAGUCUUCAUCCAGUCAGAUGACUCCAACAGAGGAUUGAGCAUCA
B13: chr7:80571614:80571615:-_ENSMUSG00000078671_ENSMUST00000169922|mus_hu|motif|central (ssRNA)
RNA: GGGAGUUCUACAGUCCGACGAUCAUAUACAAGAAUCAAAAGUACAGCAGUUUUACAAUGUAGGAAAAUUUAAUACAUACGGUAUAAACAACAUUAUUUACAUCAGAAAUCACUAGGACAGUGGCAUUUUUCACAAAUAUAAAUCAACAGAGGAUUGAGCAUCA
B14: chr15:50791314:50791315:+_ENSG00000138592_ENST00000307179|hu_hu|FALSE|FALSE (ssRNA)
RNA: GGGAGUUCUACAGUCCGACGAUCACCAUUAUCCUGAUAAGCAUUUCAAGAGUUGUGUUGCUGAGCCUUUUAAAAGAUAACUAGUUUAUAACCUAUGUCUCCUUAUGUGGCUACAUCAGUUACUCGUGGUCCCAAUGAAGUAUACAACAGAGGAUUGAGCAUCA

The list shows a part of the results.

In the experiment the target is T1, UNK ZnF1-3 (human, UniProt Q9C0B0 31-174).
T1 sequence: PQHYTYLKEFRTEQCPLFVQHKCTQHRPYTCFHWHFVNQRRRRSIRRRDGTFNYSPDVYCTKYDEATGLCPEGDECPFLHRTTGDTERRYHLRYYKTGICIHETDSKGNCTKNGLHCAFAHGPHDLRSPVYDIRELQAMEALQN
Kind of experiment: nsRBNS (natural sequence RNA bind-n-seq); RBNS binding buffer (assumed for nsRBNS): 25 mM Tris pH 7.5, 150 mM KCl, 3 mM MgCl2, 0.01% Triton X-100, 500 ug/ml BSA, 20 U/ml SUPERase-In, 4 C; UNK is unkempt and MSI1 is Musashi-1; names of the RNAs are library labels; protein concentration not given here; high values mean tight binding.
B1 returned a binding signal of 1.17 enrichment R.
The same measure for B2: 0.67 enrichment R; for B3: 1.92 enrichment R.
The figure for B4 is 1.44 enrichment R; for B5 it is 0.766 enrichment R.
The figure for B6 is 0.892 enrichment R; for B7 it is 0.802 enrichment R.
The molecule B8 showed a binding signal of 1.5 enrichment R.
The same measure for B9: 0.946 enrichment R.
The same measure for B10: 0.272 enrichment R; for B11: 1.12 enrichment R; for B12: 0.629 enrichment R.
As to B13, the binding signal is 1.01 enrichment R.
The figure for B14 is 1.01 enrichment R.
